# Assay results taken from PubChem BioAssay AID686971 (National Center for Advancing Translational Sciences (NCATS), 2013).
# Screen size: about 360,000 compounds; about 7,500 (2.1%) were called active. Inconclusive means that the source gave no clear call. Such entries were picked first, then a sample of the others. Calls come from the whole dose curve; as a rule, active = well fitted cell-killing curve with a large enough effect; inconclusive = small, poorly fitted or top-dose-only effect, or effect the other way, or another doubt; inactive = no such curve, though single readings can be large or run the other way. No potency is given beside an inconclusive call; the fits are too rough.
# Test: qHTS for induction of synthetic lethality in tumor cells producing 2HG: qHTS for the HT-1080-IDH1KD cell line;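 for activity, negative = toxicity: 0% = DMSO wells and -100% = cell-free medium wells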
# Conditions: HT-1080 IDH1 knockdown viability, ATP luminescence, 48 h; activity, negative = toxicity: at 46.1 µM (top of the series) unless noted
# In short: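 In this qHTS, HT-1080 cells depleted of IDH1 are exposed for 48 h at 37 °C to compound titrations. Toxicity is scored from CellTiter-Glo luminescence, with DMSO as full viability and medium alone as none.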
# Potency is the fitted concentration of half-maximal effect; tags give direction and shape of the fitted curve.
Compound,Potency,"activity, negative = toxicity"
COc1ccccc1NC(=O)COC(=O)c1oc2ccccc2c1C,inactive,–
COc1ccc(/C=N/NC(=O)c2c(C)nc3ccc(Br)cn23)cc1OC,active: 4.61 µM,–
N#Cc1nc(Cc2cccc3ccccc23)oc1NCCN1CCCCC1,"inconclusive [cytotoxic, single point]",–
COc1ccc(/C=N/NC(=O)c2ccc(Cn3cc([N+](=O)[O-])cn3)o2)cc1O,inactive,–
O=[N+]([O-])c1cccc(-c2csc(N/N=C/c3cccc(O)c3)n2)c1,active: 18.4 µM,–
COc1ccc(S(=O)(=O)N(C)C)cc1NC(=O)CSc1nncs1,inactive,–
CC(C)(C(=O)N1CCC1(C)C(=O)NS(=O)(=O)c1ccc(Cl)s1)c1ccccc1 (stereo unspecified),inactive,–
COc1ccc2nc(C)cc(SCC(=O)N/N=C/c3cccc4ccccc34)c2c1,active: 6.31 µM,–
Oc1[nH]c2ccccc2c1N=Nc1nc(Nc2ccccc2)nc(N2CCOCC2)n1,inactive,–
COc1ccc(CN(C)C[C@@H]2OCCCC[C@H](C)Oc3ccc(NC(=O)Nc4ccc(F)cc4)cc3C(=O)N([C@H](C)CO)C[C@H]2C)cc1,"inconclusive [cytotoxic, single point]",–
CCCCCOc1ccc(C(=O)NCC2(c3ccccc3)CCOCC2)cc1,"inconclusive [cytotoxic, partial curve]",–
Cc1ccc2nc(-c3ccc(F)cc3)c(Cc3ccccc3C(F)(F)F)n2c1,"inconclusive [cytotoxic, partial curve]",–
CC(C)c1ccc(C(=O)NCCCN2CCN(CCCNC(=O)c3ccc(C(C)C)cc3)CC2)cc1,"inconclusive [cytotoxic, single point]",–
CCOC(=O)c1cnn2c(SC)ncnc12,inactive,–
O=C(NCCCc1ccccc1)c1ccccc1O,"inconclusive [cytotoxic, single point]",–
CC(C)(C)c1cc(C(=O)N/N=C/c2ccc(F)cc2)n(-c2ccccc2)n1,inactive,–
Cc1ccccc1Cn1c(=N)n(CC(O)c2ccco2)c2ccccc21 (stereo unspecified),"inconclusive [cytotoxic, single point]",–
COc1ccc(S(=O)(=O)n2ccc(-c3ccc4c(c3)CCC(C)(C)O4)n2)cc1,"inconclusive [cytotoxic, single point]",–
CC(=O)NS(=O)(=O)c1ccc(NC(=O)CC23CC4CC(CC(Br)(C4)C2)C3)cc1,inactive,–
CCc1nc2c(sc3nc4c(cc32)COC(C)(C)C4)c(=O)n1CCN(CC)CC,"inconclusive [cytotoxic, single point]",–
OC(c1cc(F)cc(Cl)c1)c1ncc(-c2ccc(Cl)cc2)[nH]1 (stereo unspecified),"inconclusive [cytotoxic, single point]",–
C=CCNC(=S)N/N=C/c1ccc(-c2ccc(Cl)cc2Cl)o1,"inconclusive [cytotoxic, single point]",–
COc1ccc(-c2nnc(SCc3nnc(-c4ccccc4)o3)n2-c2ccccc2)cc1,"inconclusive [cytotoxic, single point]",–
CNC(=S)NNC(=O)c1sccc1OCc1cccc(C(F)(F)F)c1,"inconclusive [cytotoxic, partial curve]",–

Compound,Potency,"activity, negative = toxicity"
COc1ccc(/C=N/NC(=O)c2ccc(NC(C)=O)cc2)cc1COc1ccc(F)cc1F,"inconclusive [cytotoxic, single point]",–
O=S(=O)(Nc1ccc(O)c(Sc2nc3ccccc3s2)c1)c1ccc(F)cc1,"inconclusive [cytotoxic, single point]",–
CC(=O)N(CCS(=O)(=O)c1ccc(Cl)cc1)Cc1cccs1,inactive,–
Cc1ccc(C(O)CCc2ccc(N)cc2)cc1 (stereo unspecified),inactive,–
CC(=O)c1sc(NC(=O)CN2C(=O)C3CCCCC3C2=O)nc1-c1ccccc1 (stereo unspecified),"inconclusive [rising, single point]",–
CC1CCN(CCc2nc3cc(NS(=O)(=O)c4ccccc4)ccc3n2C)CC1,"inconclusive [cytotoxic, single point]",–
NC(=O)c1ccccc1NC(=O)CSc1nc2ccccc2c(=O)[nH]1,"inconclusive [cytotoxic, single point]",–
CCOC(=O)c1oc2ccc(S(=O)(=O)n3nc(-c4cc(OC)c(OC)c(OC)c4)cc3N)cc2c1C,inactive,–
C[C@]12c3[nH]c4ccc(Cl)cc4c3CCN1C(=O)[C@@H](CC(=O)NCC13CC4CC(CC(C4)C1)C3)C[C@@H]2C(=O)N1CCOCC1,"inconclusive [cytotoxic, single point]",–
S=C(NCc1ccncc1)Nc1cc(Cl)cc(Cl)c1,"inconclusive [cytotoxic, partial curve]",–
CCc1nc(N[C@@H](Cc2c[nH]c3ccccc23)C(=O)O)c2oc3ccccc3c2n1,"inconclusive [cytotoxic, single point]",–
O=C(NCCS(=O)(=O)N1CCN(c2ccccc2)CC1)C1CCCCC1,inactive,–
CCOc1cc(/C=C/C(=O)c2ccc(OC)c(CN3CCOCC3)c2)cc(Br)c1O,active: 23.1 µM,–
CCc1cc(C(c2cccc(OC)c2)N2CCOCC2)c(NC(=O)c2ccccc2)s1 (stereo unspecified),"inconclusive [cytotoxic, single point]",–
Cc1ccc(C(=O)NC(=S)Nc2cc(C(F)(F)F)ccc2Cl)cc1,"inconclusive [cytotoxic, partial curve, poor fit]",–
CC(C)COc1ccc(C(=O)OCC(=O)NCc2cccs2)cc1,"inconclusive [cytotoxic, single point]",–
CC1(C(=O)NCC2CC2)Cc2c(-c3ccc4c(c3)OCO4)ccnc2O1 (stereo unspecified),"inconclusive [cytotoxic, single point]",–
COc1ccccc1NC(=O)c1ccc2c(c1)N(CC#N)C(=O)C(C)(C)O2,inactive,–
CC(C)c1nc2oc3ccccc3c(=O)c2c(=O)n1-c1ccccc1,"inconclusive [cytotoxic, single point]",–
CCS(=O)(=O)N1Cc2ccccc2CC1C(=O)NC(C)C12CC3CC(CC(C3)C1)C2 (stereo unspecified),"inconclusive [cytotoxic, single point]",–
COC(=O)C1=C(COc2ccccc2)NC(=O)NC1c1ccc2ccccc2c1 (stereo unspecified),"inconclusive [cytotoxic, single point]",–
COc1cc(C)nc2nc(SCc3ccccc3)nn12,inactive,–
CN(C)CCCNC(=S)N1CCN(c2nc(-c3ccccc3)cs2)CC1,"inconclusive [cytotoxic, single point]",–
Cc1ccc(C2=NN(C(=O)c3ccccc3F)C(c3ccccc3F)C2)cc1 (stereo unspecified),active: 13 µM,–

Compound,Potency,"activity, negative = toxicity"
COc1ccccc1C=C1CCc2ccccc2C1=O,"inconclusive [cytotoxic, single point]",–
c1ccc(CCc2nn3c(Cn4cnc5ccccc54)nnc3s2)cc1,"inconclusive [cytotoxic, single point]",–
CCOC(=O)C1=C(CSc2nccn2C)NC(=O)NC1c1cc(C)ccc1C (stereo unspecified),"inconclusive [cytotoxic, single point]",–
O=C(Nc1nc(-c2ccccc2)cs1)c1ccco1,inactive,–
O=C1CC(c2ccc(F)cc2)Cc2nc(NCC3CCCO3)ncc21 (stereo unspecified),inactive,–
C[C@H](NC(=O)c1cc2cc(Cl)ccc2n1C)C(=O)N[C@@H](C(=O)O)c1ccccc1,inactive,–
Cc1ccc2nc(Cl)c3nnnn3c2c1,active: 13 µM,–
COc1ccccc1OCC(O)Cn1c(=N)n(CCN2CCCCC2)c2ccccc21 (stereo unspecified),"inconclusive [cytotoxic, single point]",–
O=C(Nc1nnc(-c2cccs2)o1)c1ccc(S(=O)(=O)N2CCOCC2)cc1,"inconclusive [cytotoxic, partial curve]",–
CCOC(=O)N1CCC(NC(=O)CS(=O)Cc2nc(-c3ccc(Cl)cc3)oc2C)CC1 (stereo unspecified),"inconclusive [cytotoxic, single point]",–
CCCCn1nnnc1SCC(=O)Nc1sc2c(c1C#N)CCCC2,"inconclusive [cytotoxic, single point]",–
C/C(=N\Nc1nccnc1Cl)c1ccc(O)c(C)c1,"inconclusive [cytotoxic, single point]",–
O=C(N/N=C/c1ccc([N+](=O)[O-])cc1)c1cccs1,inactive,–
CCCCCCCCC(=O)NC(NC(=S)N1CCOCC1)C(Cl)(Cl)Cl (stereo unspecified),active: 11.2 µM,–
CN1CCN(c2ccccc2NC(=O)c2ccc(OCc3ccccc3)cc2)CC1,active: 23.1 µM,–
O=C(Cn1cnc([N+](=O)[O-])n1)N/N=C/c1cc(Cl)ccc1O,"inconclusive [cytotoxic, partial curve, poor fit]",–
CCC(C)(C)c1ccc(OCC(=O)N(C)C)c(C(C)(C)CC)c1,active: 20.6 µM,–
CCOc1cc(/C=C/c2nc3ccccc3c(=O)[nH]2)ccc1O,inactive,–
CCOC(=O)C1=C[C@@H](C2CCCC2)N(S(=O)(=O)c2ccc([N+](=O)[O-])cc2)[C@H]1c1ccccc1,"inconclusive [cytotoxic, single point]",–
Cc1cc(NCCCn2ccnc2)n2nc(C)c(-c3ccc(Cl)cc3)c2n1,active: 11.2 µM,–
Oc1ccc(CNc2ccccc2F)c2cccnc12,"inconclusive [cytotoxic, single point]",–
COc1ccc(CCN2CCCC(CN(C)Cc3cccc(OC)c3)C2)cc1 (stereo unspecified),"inconclusive [cytotoxic, single point]",–
CCOC(=O)C1CCCN(C(=O)c2ccc(OC)cc2)CC1 (stereo unspecified),–,inconclusive: 30.4%
